Read counts are not given, so values of variants with three or more changes are uncertain.
B1: LINE1-mini (parent)
chain: GGCAGAGCUCAACACAGCGUGGCAAAGUGGCUGUGGCUAGACUGCC

Variants of: B1
Test: self-cleavage, relative activity (ratio to wild type); higher = more cleavage; in vitro, sequencing; the parent is a self-cleaving ribozyme
Work on GGCAGAGCUCAACACAGCGUGGCAAUUUGGCUGUUGCUAGACUGUC yielded a self-cleavage of 0.01.
With GGCAGAGCUCAACACAGCGUGGCAAUUUGGCUGUGGCUAGACUUCC the self-cleavage was 0.17.
With GGCAGAGCUCAACACAGCGUGGCAAUGUUGGUGUGGCUAGACUGCC the self-cleavage was 0.04.
With GGCAGAGCUCAACACAGCGUGGCAAUGUUGCUGGUGCUAGACCGCC the self-cleavage was 0.07.
Variant GGCAGAGCUCAACACAGCGUGGCAAUGUGCCUGUGUCUAGACUGCC has a self-cleavage of 0.07.
Work on GGCAGAGCUCAACACAGCGUGGCAAUGUGUCGGUGGCUAGACUGCC yielded a self-cleavage of 0.1.
Variant GGCAGAGCUCAACACAGCGUGGCAAUGUGGCUUUGGCUAGGCUGCC has a self-cleavage of 0.02.
GGCAGAGCUCAACACAGCGUGGCAAUGUGGCUUUGACUAGAAUGCC showed a self-cleavage of 0.05.
GGCAGAGCUCAACACAGCGUGGCAAUGUGGCUGUGCCUAGACUGUC gave a self-cleavage of 0.13.
With GGCAGAGCUCAACACAGCGUGGCAAUGUGGCUGUGCCCAGAGUGCC the self-cleavage was 0.
GGCAGAGCUCAACACAGCGUGGCAAUGUGGCUGUGGCUAAGCUGCC showed a self-cleavage of 0.18.
For GGCAGAGCUCAACACAGCGUGGCAAUGUGGCUGUGGCUAAACUGUC, the self-cleavage was 0.04.
In the case of GGCAGAGCUCAACACAGCGUGGCAAUGGGGCUGUGGCUAGCCUGCC, the self-cleavage is reported as 0.
GGCAGAGCUCAACACAGCGUGGCAAUGUGGCAGUUGCUAGACUGCC showed a self-cleavage of 0.02.
With GGCAGAGCUCAACACAGCGUGGCAAUGUGGCCGUGGCUAGACUGCA the self-cleavage was 0.07.
In the case of GGCAGAGCUCAACACAGCGUGGCAAUGUGGCCGUGGCUAAACUUCC, the self-cleavage is reported as 0.03.
GGCAGAGCUCAACACAGCGUGGCAAUGUGGCUGUGGCAAGACUGAC gave a self-cleavage of 0.04.
Work on GGCAGAGCUCAACACAGCGUGGCAAAAUGGCUGUGGCUGGACUUCC yielded a self-cleavage of 0.01.
In the case of GGCAGAGCUCAACACAGCGUGGCAAAAUGGCUGUGGCUUGCCUGCU, the self-cleavage is reported as 0.06.
Variant GGCAGAGCUCAACACAGCGUGGCAAAAUGGCUGUGGCUAGUUUGCC has a self-cleavage of 0.04.
Variant GGCAGAGCUCAACACAGCGUGGCAAAAUAGCUGUGGCUAGCCUGCC has a self-cleavage of 0.08.
GGCAGAGCUCAACACAGCGUGGCAAAAUAGCUGGGUCUAGACUGCC showed a self-cleavage of 0.11.
GGCAGAGCUCAACACAGCGUGGCAAAAUCGCUGUGGCUAGACUGAC gave a self-cleavage of 0.27.
For GGCAGAGCUCAACACAGCGUGGCAAAAUUCCUGUUGCUAGACUGCC, the self-cleavage was 0.08.
In the case of GGCAGAGCUCAACACAGCGUGGCAAAAUUGCUGUGGCAAGACUGCC, the self-cleavage is reported as 0.16.
For GGCAGAGCUCAACACAGCGUGGCAAAAUGACUGUUGCUAUACUCCC, the self-cleavage was 0.21.
GGCAGAGCUCAACACAGCGUGGCAAAAUGACUGUGGCAGGACUGCC showed a self-cleavage of 0.07.
For GGCAGAGCUCAACACAGCGUGGCAAAAUGCCUGUGGGUAGACUGCC, the self-cleavage was 0.06.
With GGCAGAGCUCAACACAGCGUGGCAAAAUGGCUAUAGCUAGACUGCC the self-cleavage was 0.08.
GGCAGAGCUCAACACAGCGUGGCAAAAUGGCUCUGGCUAGACUGGC gave a self-cleavage of 0.05.
In the case of GGCAGAGCUCAACACAGCGUGGCAAAAUGGCUCUGGCUAGACUGCG, the self-cleavage is reported as 0.08.
GGCAGAGCUCAACACAGCGUGGCAAAAUGGCUGUCGCUAAACUGCC gave a self-cleavage of 0.19.
For GGCAGAGCUCAACACAGCGUGGCAAAAUGGCUGUGACAAUACUGCC, the self-cleavage was 0.06.
With GGCAGAGCUCAACACAGCGUGGCAAAAUGGCUGUGCCUAGCCUGCC the self-cleavage was 0.07.
With GGCAGAGCUCAACACAGCGUGGCAAAAUGGCUGUGGCUAAACUUCC the self-cleavage was 0.08.
With GGCAGAGCUCAACACAGCGUGGCAAAAUGGCUGUGGCUAUCCUGCC the self-cleavage was 0.13.
GGCAGAGCUCAACACAGCGUGGCAAAAUGGCUGUGGCUAUAAUGCC gave a self-cleavage of 0.1.
In the case of GGCAGAGCUCAACACAGCGUGGCAAAAAGGCUGUGGCUAGAACGCC, the self-cleavage is reported as 0.09.
For GGCAGAGCUCAACACAGCGUGGCAAAACGGCUGUGGUUAGACUGCC, the self-cleavage was 0.04.
Variant GGCAGAGCUCAACACAGCGUGGCAAAAUGGCAGUGGCUAGAAUGCC has a self-cleavage of 0.12.
In the case of GGCAGAGCUCAACACAGCGUGGCAAAAUGGCUGACGCUAGACUGCC, the self-cleavage is reported as 0.
GGCAGAGCUCAACACAGCGUGGCAAAAUGGCUGUGGCGAGACUGAC gave a self-cleavage of 0.01.
GGCAGAGCUCAACACAGCGUGGCAAACUGGCUGUGGCUUGACUGCG gave a self-cleavage of 0.19.
In the case of GGCAGAGCUCAACACAGCGUGGCAAACUGGCUGUGGCUAGCCUUCC, the self-cleavage is reported as 0.05.
GGCAGAGCUCAACACAGCGUGGCAAACUGGAUGUGGUUAGACUGCC showed a self-cleavage of 0.12.
For GGCAGAGCUCAACACAGCGUGGCAAACUGGGUGUGCCUAGAUUGCC, the self-cleavage was 0.03.
With GGCAGAGCUCAACACAGCGUGGCAAACUGGCUGUGGCUAGAUUGUC the self-cleavage was 0.11.
For GGCAGAGCUCAACACAGCGUGGCAAACUAGCUUAGGCUAAACUGCC, the self-cleavage was 0.05.
For GGCAGAGCUCAACACAGCGUGGCAAACUAGCUGCGGCUAGACUGCC, the self-cleavage was 0.1.
For GGCAGAGCUCAACACAGCGUGGCAAACUAGCUGUGGCUAGACAGCC, the self-cleavage was 0.06.
For GGCAGAGCUCAACACAGCGUGGCAAACUCUCUGUGGCUAGACUGCC, the self-cleavage was 1.44.
GGCAGAGCUCAACACAGCGUGGCAAACUGACUGUGGCUAGACUGCA gave a self-cleavage of 0.72.
In the case of GGCAGAGCUCAACACAGCGUGGCAAACUGACUGUGGCUAGACCGCC, the self-cleavage is reported as 0.08.
Variant GGCAGAGCUCAACACAGCGUGGCAAACUGUCUGUGGCUAGACUUCC has a self-cleavage of 0.14.
Work on GGCAGAGCUCAACACAGCGUGGCAAACUGUCGGUGGCUAGACUGCC yielded a self-cleavage of 0.05.
GGCAGAGCUCAACACAGCGUGGCAAACUGGCUGUUCCUAGACUGCC gave a self-cleavage of 0.07.
